# Experimental data taken from patent US20200181597A1, “Composition and Application of Arginine-depleting Agents for Cancer, Obesity, Metabolic Disorders, and Related Complications and Comorbidities” (THE HONG KONG POLYTECHNIC UNIVERSITY, priority 2018, published 2020).
# Where “and” joins values, the source holds several entries; their conditions need not be identical. Equal entries are not always repeated.
# Columns and labels:
# [1] = system: HCT116 human colon cancer cells; test: Apoptosis by annexin V-FITC and PI flow cytometry; assay type: cell-based; conditions: 50 μg/mL
# Method: To evaluate the induction of apoptosis by the BCA arginase (SEQ ID NO: 71), 3×10^5 cells were seeded in 6-well plate one day prior to different treatment conditions. The medium was withdrawn and replenished with complete medium supplemented with different concentrations of BCA (SEQ ID NO: 71). After exposed to BCA for 24 h, 48 h and 72 h, both floating cells and adherent cells were collected. Briefly, the floating cells in culture medium were collected by centrifugation at 100×g for 3 min at room temperature while the adherent cells were washed with PBS and lifted by incubating with 0.25% trypsin solution for 3 min at 37° C. After addition of complete medium, the cells were collected by centrifugation. The cells were washed with PBS and resuspended in 0.1 mL binding buffer (0.01 M HEPES, pH 7.4; 0.14 M NaCl; 2.5 mM CaCl2) containing propidium iodide (PI) and annexin V-FITC. The cells were stained in dark at room temperature for 15 min and 0.4 mL of binding buffer was added to each tube prior to flow cytometry analysis using FACSAria (BD biosciences). The cytometer was set to acquire the data from 10,000 cells for each sample and the data were analyzed by the FACSAria software.
# [2] = Arginase specific activity, DAMO colorimetric assay; assay type: biochemical; conditions: for Specific activity: DAMO assay, 37° C., pH 7.4, purified preparation
# Excerpt: The arginase activity of the fusion proteins described herein can be substantially the same, lower, or higher than the activity of the arginase polypeptide from which it is derived. One unit of arginase activity is defined as the amount of fusion protein [e.g., BHA (SEQ ID NO; 75), BAH (SEQ ID NO: 76), N-ABD-rhArg (SEQ ID NO: 49), or N-ABD094-rhArg (SEQ ID NO: 50)] or arginase [e.g., BCA (SEQ ID NO: 70)] that catalyzes the production of 1 μmol of urea per min under standard assay conditions. The specific activity of the enzyme is expressed as activity units per mg of protein. Under standard diacetylmonoxime (DAMO) assay conditions (37° C., pH 7.4), the fusion proteins can have a specific activity that is about 5%, about 10%, about 15%, about 20%, about 25% about 30%, about 35% or about 40% lower or higher than the corresponding arginase polypeptide which it incorporates. In certain embodiments, fusion proteins can have a specific activity that is about 5% to about 40%, about 10% to about 40%, about 10% to about 35%, about 10% to about 30%, about 20% to about 30%, about 20% to about 35%, about 15% to about 30%, about 15% to about 25%, or about 10% to about 20% lower or higher than the corresponding arginase polypeptide which it incorporates.
# One unit of enzyme activity is defined as the amount of enzyme (BCA, BHA or BAH) that catalyzes the production of 1 μmol urea per min under standard assay conditions. Specific activity of the enzyme is expressed as activity units per mg of protein.
# Briefly, a serial dilution of 0.3 mL BCA solutions together with 0.15 mL water and 720 mM arginine substrate at pH 7.4 was pre-incubated separately at 37° C. for 10 min. The enzymatic reaction was carried out by adding 0.3 mL arginine substrate to the pre-incubated enzyme solutions. The reaction mixture was incubated at 37° C. for exactly 5 minutes and quenching reagent [50% trichloroacetic acid (TCA)] was added to stop the reaction. The sample blanks were prepared in a similar way but the same volume of enzyme solutions was added after TCA solution.
# The urea formed from the above reaction was quantified using the DAMO direct colorimetric method described by World Health Organization (WHO). This protocol has been adopted by WHO as the Standard Operating Procedures (SOP) for measuring the blood urea concentration. Several reagents were prepared regarding the SOP, mixed acid reagent was prepared by slowly adding 100 mL concentrated sulfuric acid to 400 mL distilled water followed by 0.3 mL stock acid reagent (0.5 g ferric chloride hexahydrate in 15 mL of distilled water and make up to 25 mL by concentrated phosphoric acid). […] The absorbance at 540 nm was measured. […]
# [3] = molecular target: human serum albumin (HSA) (Homo sapiens, UniProt P02768); test: Binding to HSA on non-denaturing PAGE; conditions: fixed HSA titrated at various molar ratios
# Method: When ABD is fused to rhArg or BCA, it is important for the fusion protein to retain both the albumin binding capacity and the enzymatic activity. […] The reaction mixtures were analyzed in their native condition on non-denaturing PAGE where the proteins were separated by size and conformation.
# In FIG. 7, the mobility of each of HSA and N-ABD-rhArg (SEQ ID NO: 49) alone are shown in Lanes 2 and 3 of the non-denaturing PAGE, respectively (FIG. 7). A fixed amount of HSA (30 pmoles) was titrated against N-ABD-rhArg (SEQ ID NO: 49) at various molar ratios and the results are illustrated in Lanes 5-9. […] In FIG. 8, the mobility of each of HSA and BHA (SEQ ID NO: 75) alone are shown in Lanes 6 and 7 of the non-denaturing PAGE, respectively (FIG. 8). A fixed amount of HSA (60 pmoles) was titrated against BHA (SEQ ID NO: 75) at various molar ratios and the results are illustrated in Lanes 1-5.
# [4] = system: MKN45 gastric cancer cell line; test: MTT viability of gastric cancer cells with BHA; assay type: cell-based; conditions: 72 h, dose-dependent manner
# Method: The growth of MKN45 was inhibited in a dose-dependent manner. The viability was determined by MTT endpoint colorimetric assay. Data expressed as mean±SD,n=3.
# The in vitro efficacy of the albumin-binding arginase BHA (SEQ ID NO: 75) was tested by incubating the MKN45 gastric cancer cell line with various concentrations of BHA (SEQ ID NO: 75) for 72 h and determining the viability of MKN45 by MTT assay. […] This further confirmed the cytotoxicity of the arginine-depleting fusion protein in culture condition where the medium was supplemented with fetal bovine serum (FBS) and, including albumin as well as other different proteins.
# plasma arginine = conditions: 250 U per mouse; for period of undetectable plasma arginine: i.v. or i.p., detection limit 3 μM
# Method: FIG. 9 illustrates the pharmacodynamics of BCA (S161C)-His (SEQ ID NO: 89) and the BHA fusion protein (SEQ ID NO: 75) on plasma arginine in mice. Each BALB/c mouse was administered via intravenous injection (i.v.) or intraperitoneal injection (i.p.) with 250 U BCA (S161C)-His (SEQ ID NO: 89) or BHA fusion protein (SEQ ID NO: 75). Plasma was collected at the indicated time points after injection. Time 0 refers to the plasma sample collected prior to the injection. The amount of arginine in each sample is determined by the Biochrom 30 Amino Acid Analyzer. Arginine concentrations below the detection limit (3 μM) are regarded as 0 μM in these plots. Each point represents mean±SD of three mice.
# Six BALB/c mice of 8 weeks old were used for the in vivo study of BHA (SEQ ID NO: 75). Prior to the injection of BHA (SEQ ID NO: 75), blood sample was taken from each mouse and used as control (0 h). The mice were randomly divided into two groups for intraperitoneal (i.p.) and intravenous (i.v.) injection, respectively. BHA (SEQ ID NO: 75) (250 U) was injected to each mouse, and blood samples were taken at 6, 24, 72, and 120 h after injection. The plasma of each blood sample at 16 μL was analyzed by an amino acid analyzer (Biochrom) for arginine and ornithine content.
Molecule,HCT116 cells undergone apoptosis ([1]; 24 h),HCT116 cells undergone apoptosis ([1]; 48 h),HCT116 cells undergone apoptosis ([1]; 72 h),"specific activities of BHA alone and the BHA-HSA complexes ([2]; BHA:HSA mole ratio 1:10, 1:5, 1:1, 5:1 and 10:1)",Specific activity [2],effect of HSA on arginine catabolic activity ([2]; various amounts of HSA added),binding to HSA (free HSA reduced in a proportional manner) [3],growth of MKN45 cancer cells [4],"tolerance, side effects (plasma arginine)",period of undetectable plasma arginine (plasma arginine),time for plasma arginine to return to normal (plasma arginine)
"BCA (SEQ ID NO: 71): BCA arginase; SEQ ID NO: 71 is headed BCA (S161C)-His amino acid sequence (protein, His tag; BCA (S161C) Arginase, Synthesized in the Lab) MKPISIIGVPMDLGQTRRGVDMGPSAMRYAGVIERLERLHYDIEDLGDIPIGKAERLHEQGDSRLRNLKAVAEANEKLAAAVDQVVQRGRFPLVLGGDHSIAIGTLAGVAKHYERLGVIWYDAHGDVNTAETSPSGNIHGMPLAASLGFGHPALTQIGGYCPKIKPEHVVLIGVRSLDEGEKKFIREKGIKIYTMHEVDRLGMTRVMEETIAYLKERTDGVHLSLDLDGLDPSDAPGVGTPVIGGLTYRESHLAMEMLAEAQIITSAEFVEVNPILDERNKTASVAVALMGSLFGEKLM",~16%,21%,25%,,,,,,,,
"BHA: BCA-6×His-ABD fusion protein, BCA with V20P and S161C (protein, 6xHis, ABD fusion; BHA Fusion Protein, Synthesized in the Lab) MKPISIIGVPMDLGQTRRGPDMGPSAMRYAGVIERLERLHYDIEDLGDIPIGKAERLHEQGDSRLRNLKAVAEANEKLAAAVDQVVQRGRFPLVLGGDHSIAIGTLAGVAKHYERLGVIWYDAHGDVNTAETSPSGNIHGMPLAASLGFGHPALTQIGGYCPKIKPEHVVLIGVRSLDEGEKKFIREKGIKIYTMHEVDRLGMTRVMEETIAYLKERTDGVHLSLDLDGLDPSDAPGVGTPVIGGLTYRESHLAMEMLAEAQIITSAEFVEVNPILDERNKTASVAVALMGSLFGEKLMHHHHHHAQHDEAVDANSLAEAKVLANRELDKYGVSDYYKNLINNAKTVEGVKALIDEILAALP",,,,approximately 200 U/mg,220.6±15.8 U/mg,not affected,specific binding,inhibited,no obvious side effects,at least 24 hours,
"BCA (S161C)-His: engineered Bacillus caldovelox arginase with serine-to-cysteine mutation and C-terminal histidine tag (protein, His tag; BCA (S161C) - His, Synthesized in Lab) MKPISIIGVPMDLGQTRRGVDMGPSAMRYAGVIERLERLHYDIEDLGDIPIGKAERLHEQGDSRLRNLKAVAEANEKLAAAVDQVVQRGRFPLVLGGDHSIAIGTLAGVAKHYERLGVIWYDAHGDVNTAETSPSGNIHGMPLAASLGFGHPALTQIGGYCPKIKPEHVVLIGVRSLDEGEKKFIREKGIKIYTMHEVDRLGMTRVMEETIAYLKERTDGVHLSLDLDGLDPSDAPGVGTPVIGGLTYRESHLAMEMLAEAQIITSAEFVEVNPILDERNKTASVAVALMGSLFGEKLMHHHHHH",,,,,243.30 U/mg and 264 U/mg,,,,,8 h,≤ 24 h
